# Results: the supplement of paper PMC11417369
# ± gives the standard deviation of the averaged measurements. The list shows a part of the results.
# Test system: PfAP2-LT AP2 domain (GST-tagged)
# Assay: gcPBM binding intensity (ln(normalized median fluorescence intensity)); higher = stronger DNA binding
# Summary of the method: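 Binding intensity is the highest Masliner-normalised natural-log median intensity over replicate spots in either probe orientation. To obtain it, GST-tagged P. falciparum DNA-binding domains made in E. coli were incubated for 1 h on an Agilent 4 × 180k array of primer-extended double-stranded 36-bp intergenic genomic probes plus negative controls. Detection used Alexa488 anti-GST antibody with scanning at 488 nm.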
row,Sequence,gcPBM binding intensity (ln)
1,ACTACGTGTCAAAAATATTAATTACAAATGAATAAA [GTGCAC_negctrl_site248],8.44 ± 0.43
2,TATTAATATATAGTAGTGCAATAAAGATATACTGAA,8.83 ± 0.51
3,AACATACTCACGAACATACACACGGACATACATACG [CACACA_site603],9.51 ± 0.16
4,ATGCATACACTTATATGTACACATTTACATATTATT [XGTACX_site2841],9.16 ± 0.48
5,CGAAAGGAAATATAACGTACATAAGATTATATTCAC [XGTACX_site3868],8.88 ± 0.45
6,AATAAATAAATATATTGTACATATATATATATATAT [XGTACX_site8627],9.38 ± 0.63
7,ATGAACAAGGGGCACACACACATTATGACTAATTTA [CACACA_site3204],9.6 ± 0.45
8,TATTAAAAGAAAAAAAAAAAAAAATTAATACATATA [XGTACX_negctrl_site582],8.32 ± 0.54
9,ACATGTAAATTTACATGTACATGTAACACTTAATAT [XGTACX_site4575],8.98 ± 0.28
10,AAAACAAACGGACACACACACATATATATATATATA [CACACA_site5924],10.2 ± 0.44
11,TAATATTTTAATTGTGTGCACATTAATATTATAAAA,8.84 ± 0.42
12,TTTAGTGAGTTTGTTGTGCACTGAAAAAATTACAAT,8.56 ± 0.35
13,TATATTATTTTTTGTGGTACATGTATTTTTACCTAA [XGTACX_site4348],8.84 ± 0.42
14,TACATATTTACTATCACACACACGATATATATAAAT [CACACA_site1242],9.35 ± 0.26
15,ATACGAAAAAATAGACGTACTATGAAATAATAATTT [XGTACX_site8387],9.01 ± 0.45
16,TACTTAAAAAAAAAAAAAATAAATATTATGTATTAT [CACACA_negctrl_site138],8.24 ± 0.59
17,ATATTATACATTTATACACACATAAAAAGACAAAAA [CACACA_site3565],9.07 ± 0.42
18,AAACAATTTGGGTGTACACATGATACGTTCGATGAG [CACACA_site5160],9.04 ± 0.42
19,ATAACCTAATAATACACACACATGAATATAAATAAC [CACACA_site6584],9.52 ± 0.25
20,ATATATATTTTATACGCATGTAATTATTATGTGGTC [TGCATGCA_site45],9.04 ± 0.39
21,TATATTAAACAATATACACACATTAATGTATCCATA [CACACA_site5523],8.9 ± 0.45
22,TTATATATATATATATGTACACATATATAACATGAT [XGTACX_site6643],9.19 ± 0.28
23,TGTAATATTTTTCATGCATGCTCTTCTTTTACATAA [TGCATGCA_site144],9.11 ± 0.35

row,Sequence,gcPBM binding intensity (ln)
1,ATAATTTATATTACTTGTACATATTTATATGAACGA [XGTACX_site3610],8.68 ± 0.48
2,AAAATTAAAAATAACACACACATATTTATATTTATA [CACACA_site7329],9.16 ± 0.35
3,TATTCTTTTATGAATACACACATATACGAAAATATT [CACACA_site6585],8.73 ± 0.43
4,AAGGAGAAATATTGCACACGTGCAAAATGGTATGAG [CACACA_site259],9.25 ± 0.47
5,CTTAATTTTTTTTAATGTACATACATATAAACCTTT [XGTACX_site2233],8.63 ± 0.52
6,AGTTATATGTACTACACACGTACACAAAATAAGATA [CACACA_site3719],9.16 ± 0.42
7,AGGTGTCATAGATGCACACAAAAGTAACACGCACCT [CACACA_site4418],9.28 ± 0.41
8,AAAAGGTTATCAAAATGTACGAAATGTTACAAAAAT [XGTACX_site6215],8.79 ± 0.5
9,AAATGTTAAAAAGAGAAAAACAATAAAAAACAATTA [CACACA_negctrl_site1044],8.61 ± 0.54
10,TACTATTATTATTGCACACTTATTATCCCTCGGATA [CACACA_site162],9.03 ± 0.49
11,TGATCATAGAAACACACACACAAAAAAAAAAAAAAA [CACACA_site4008],9.31 ± 0.52
12,AATATATATTAATACACACACACATATATATATATA [CACACA_site3786],9.8 ± 0.13
13,AGACGATAAATCATTCATTCATTTACCATCCAAAAA [CACACA_negctrl_site802],8.54 ± 0.42
14,TTTTAATTAGTACAAACACACATATACAGACAAAAA [CACACA_site2563],8.96 ± 0.38
15,TAATATAGAAAATGCATACACACTTTATATATATAT [CACACA_site911],8.93 ± 0.35
16,CTTTTTAATGAATACACACACACACCGATATATATA [CACACA_site5296],9.88 ± 0.2
17,GAATAATATGGACATACACACATATACATACCTATA [CACACA_site7075],9.27 ± 0.44
18,AAATATTATTGACGATGTACTTCTATTCATAAGTAT [XGTACX_site3964],8.7 ± 0.35
19,TAAAACTTATACAAATGTACAAATATATATATATAT [XGTACX_site4661],9.2 ± 0.22
20,AAAATTTTTTTTGGCGCACACTAATAATAAAATATA [CACACA_site470],8.62 ± 0.46
21,TATATATGTATGTATGTACACACAAAAAATGGAATA [CACACA_site9235],9.41 ± 0.46
22,AAGAGAGAGAAATATGCACACATAAGGGAAATAAAT [CACACA_site8300],9.29 ± 0.56
23,TTTTTTTAAAACAAAAAAAAAAAAAAAAAAAAAAAA [TGCATGCA_negctrl_site418],8.04 ± 0.24

row,Sequence,gcPBM binding intensity (ln)
1,TTCTTTTTTATTTATACATGCAATAAAAAATTGATT [TGCATGCA_site730],8.48 ± 0.35
2,AATAAACATTATTTTCGTATTCCAATTCTTTTTTTT [XGTACX_negctrl_site374],8.55 ± 0.52
3,TTGATAAAATCACTGGTGCATGTAGATATATAATAT,8.8 ± 0.35
4,AAAAAAAAAAGAAAAAGTACATACATACATATATAT [XGTACX_site6405],8.78 ± 0.45
5,TTATTATTAGAAAAAAGTACACATATAAAATGTTAC [XGTACX_site6426],8.46 ± 0.5
6,GTAAAATTAAAAATAACACACAAAAAAAAAAAAAAA [CACACA_site800],8.8 ± 0.43
7,GGATACATATGTAAAAGTACACATGAATATATACAT [XGTACX_site6469],9.14 ± 0.4
8,AGCCACAATACGGAAACACACAAGTTATTTTATCAT [CACACA_site2724],9.16 ± 0.47
9,AATGAAGACTTTTTTACACACTTCATATCTTATAGA [CACACA_site7046],8.87 ± 0.35
10,TTTTAACGTAATTCAAATGAGCAGAATTTTTTAAAA [CACACA_negctrl_site1800],8.13 ± 0.35
11,TTTTTATGAATTCTTTTGTTAATAATAATATGTTGT [TGCATGCA_negctrl_site198],8.56 ± 0.45
12,AATATTTTTAATTAATGTACATATTTATTATATAAA [XGTACX_site5112],8.36 ± 0.4
13,AAATTTTTTCCGATTTGTACTTATATTTCTTTATTA [XGTACX_site1762],8.82 ± 0.47
14,ATCTTTCAATAATTCACACATATATATATATATATA [CACACA_site4598],9.36 ± 0.54
15,CTATTACAAAGAAATTGTACATATATATATAAAAAC [XGTACX_site8800],8.82 ± 0.37
16,ATATATATATATGTACACATATATGTGTTTGTTTTT [GTGCAC_negctrl_site5],9.76 ± 0.29
17,ATAATATATATATTTTGTACACATGAAAAGGAGGAT [XGTACX_site5034],9.07 ± 0.36
18,TAAATAAATTTATGTACACACACAAATAAATACATA [CACACA_site5107],9.26 ± 0.38
19,AAAAAAAAGAAAAACACACACATATTTATTTATAAC [CACACA_site6600],9.25 ± 0.47
20,TATATATATATATATAGTACACATATCACATAAATG [XGTACX_site6379],9.47 ± 0.37
21,ATAATATATGTATGTATGCACTTTTATTATTTTTTT,8.93 ± 0.52
22,TATATATTAAATTATAGTACACATTATATATAATTA [XGTACX_site4841],8.43 ± 0.35
23,TAAATCCGCACGCACACACACATATTAATAAAAAAA [CACACA_site7800],9.61 ± 0.38

row,Sequence,gcPBM binding intensity (ln)
1,TTATTTTTATTATAAATTATAAAATATAAATAAATA [GTGCAC_negctrl_site616],7.89 ± 0.52
2,GAAACTATGTAATGCACACCAAAATAAAATTATTAA [CACACA_site1904],8.96 ± 0.46
3,TCTTCTTAACCAACTATGAAAAGGAAAAATATAACA [GTGCAC_negctrl_site565],8.31 ± 0.45
4,CATGAATTTTTTTAATGTACATTCACATCATAAAAA [XGTACX_site7475],8.47 ± 0.39
5,ATATATTATATATATAGTACGTATATAAATTTAATT [XGTACX_site5041],8.73 ± 0.4
6,ATTATAAAAAAGAAACGTACATATTTATTGTTTTTT [XGTACX_site2161],8.61 ± 0.45
7,AATAATTTAATACATACACACGTATATCTTTTTTTT [CACACA_site8632],8.89 ± 0.4
8,TATATATATAACATATGTACATATATTTATAAATAC [XGTACX_site5484],8.68 ± 0.4
9,TATATAAATATACACCCACACACATATATATATATA [CACACA_site9247],9.61 ± 0.28
10,TATATTCCACTCATTGATTTTCTCTTCTCACAAAAA [CACACA_negctrl_site1016],8.47 ± 0.46
11,ATCGTAGTATAATATGAACACACACCCACCCACAAA [CACACA_site8616],9.71 ± 0.29
12,TATAAAAAAAAATGTGGTACATATTTCCATTTTCCA [XGTACX_site4571],8.53 ± 0.36
13,TATAATAATACTTATTGTACTATTAGTTTAATTCAT [XGTACX_site6638],8.61 ± 0.48
14,TTTTTAATCCTTTGCGCATGTAAAATTATATATTTT [TGCATGCA_site306],8.76 ± 0.42
15,TATATATATATGTGTACACAAAAAATATTATATTAT [CACACA_site5505],8.94 ± 0.44
16,ATTCTATTTTTAAGTACACACATATATATATATATA [CACACA_site3658],9.27 ± 0.042
17,ACATAATTATTATGCACACATATTTTTATGTATTTA [CACACA_site698],9.12 ± 0.39
18,ATACTTTATTAATATTGTACAAAATAAGAAAAAAAA [XGTACX_site310],8.59 ± 0.47
19,CACAACAGGGTTGAGGTGCGTAAAAATAGTAGAATA [GTGCAC_site9523],8.74 ± 0.6
20,ACATAAAAATTATGCACACTTAATAAAGCGAAATGT [CACACA_site3183],9.1 ± 0.39
